This is an account of results in PubChem BioAssay AID1745853 (National Center for Advancing Translational Sciences (NCATS), 2022).

Common to all, as to assay: Primary Screen for Target Class Profiling of Small Molecule Inhibitors of Methyltransferases
Assay [1] concerns the target Glycine N-methyltransferase (Homo sapiens) (UniProt Q14749). Conditions: purified enzyme, MTase-Glo SAH luminescence; measured here: GNMT inhibition; at 40 µM; stronger effect = lower value. The method in brief:
(§1)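 Each enzyme was reacted with SAM and its substrate, with compounds tested once at 40 uM; SAH formed was read by MTase-Glo luminescence.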

Assay [2] addresses Guanidinoacetate N-methyltransferase (Homo sapiens) (UniProt Q14353). Conditions: purified enzyme, MTase-Glo SAH luminescence; measured here: GAMT inhibition; at 40 µM; stronger effect = lower value. The procedure, abridged:
as §1

Assay [3] deals with Histamine N-methyltransferase (Homo sapiens) (UniProt P50135). Conditions: purified enzyme, MTase-Glo SAH luminescence; measured here: HNMT inhibition; at 40 µM; stronger effect = lower value. The method in brief: as §1
Assay [4] deals with Nicotinamide N-methyltransferase (Homo sapiens) (UniProt P40261). Conditions: purified enzyme, MTase-Glo SAH luminescence; measured here: NNMT inhibition; at 40 µM; stronger effect = lower value. The procedure, abridged: as §1
Assay [5] deals with Phenylethanolamine N-methyltransferase (Homo sapiens) (UniProt P11086). Conditions: purified enzyme, MTase-Glo SAH luminescence; measured here: PNMT inhibition; at 40 µM; stronger effect = lower value. The method in brief:
as §1

The list shows a part of the results. Shown are side measurements of this screen, not its main read-out; they come without a call.
% is set by controls: 0 for no effect and ±100 for the full control effect.

Consider `CCN1C(=O)c2cc3ccccc3n2CC1(C)C(=O)NCC(=O)NCCc1ccco1` (stereo not given), for which the activity change, negative = inhibition in assay [1] is -8.69%; in assay [2] it was 0%; in assay [3], 2.64%; in assay [4] it was -1.38%; in assay [5] it was -3.11%.

Take `Cc1nc(CN2C[C@H](C(=O)N3CCN(c4ccccn4)CC3)C[C@@H]2c2ccc(F)cc2)cs1`: the activity change, negative = inhibition is -4.03% in assay [1]; 0.946% in assay [2]; 0.222% in assay [3]; -9.09% in assay [4]; -1.34% in assay [5].

For `Cc1cccc(CNC(=O)Cn2ccc3cc(S(=O)(=O)N4CCC(C)CC4)ccc32)c1`, the activity change, negative = inhibition in assay [1] was -0.118%; in assay [2], 2.08%; in assay [3], -0.331%; in assay [4] it was -6.59%; in assay [5] it was -1.2%.

As to `CC1(C(=O)NCC2CCCO2)Cn2c(cc3ccccc32)C(=O)N1Cc1cccc(Cl)c1` (stereo not given), the activity change, negative = inhibition was -0.307% in assay [1]; 2.86% in assay [2]; 3.04% in assay [3]; -2.88% in assay [4]; -1.01% in assay [5].

Regarding `CCOc1ccc(S(=O)(=O)NCCn2c(C(F)(F)F)nc3ccccc32)cc1`, the activity change, negative = inhibition in assay [1] is -11%; in assay [2] it was 3.12%; in assay [3], -8.23%; in assay [4], -12.2%; in assay [5] it was -12.1%.

Turning to `CCC(C)N(C)C(=O)c1cc2ccccc2c(-c2ccccc2Cl)n1` (stereo not given), the activity change, negative = inhibition in assay [1] was -0.645%; in assay [2], 15%; in assay [3], 2.22%; in assay [4], -18.3%; in assay [5], 10.8%.

`COc1cc(C2Oc3c(OC)cc(CCCO)cc3C2CO)ccc1O` (stereo not given): the activity change, negative = inhibition is 1.37% in assay [1]; -0.394% in assay [2]; 8.06% in assay [3]; -10.6% in assay [4]; -5.78% in assay [5].

With `CCc1cc2c(cc3n2CC(C)(C(=O)NC2CCC(C)CC2)N(c2ccccc2C)C3=O)s1` (stereo not given), the activity change, negative = inhibition in assay [1] worked out at 7.32%; in assay [2], 2.13%; in assay [3] it was 8.82%; in assay [4] it was 15.6%; in assay [5], 5.15%.

With `Cc1cnc(CCNC(=O)c2n[nH]c3ccccc23)n1C1CCC1`, the activity change, negative = inhibition in assay [1] is -10.8%; in assay [2], -0.571%; in assay [3], -38.1%; in assay [4] it was -7.6%; in assay [5] it was -3.92%.

For `Nc1nc2ccc(Cl)cc2c2nc(-c3ccco3)nn12`, the activity change, negative = inhibition is -15.9% in assay [1]; -4.8% in assay [2]; 3.29% in assay [3]; -13.2% in assay [4]; -3.08% in assay [5].

As to `Cc1noc(C)c1-c1cnc(Nc2ccc(F)c(Cl)c2)c2c1CCO2`, the activity change, negative = inhibition in assay [1] is -8.45%; in assay [2], -12.2%; in assay [3] it was -9.91%; in assay [4], -16.6%; in assay [5], -8.82%.

Take `CN(CC(=O)NCc1cccnc1)S(=O)(=O)c1ccc2[nH]c3c(c2c1)CCCC3`: the activity change, negative = inhibition was -6.46% in assay [1]; -3.8% in assay [2]; -3.67% in assay [3]; 1.69% in assay [4]; -9.43% in assay [5].

In the case of `COC(=O)c1cc2n(n1)CC(C)(C(=O)NC1CCCCC1)N(c1cc(C)ccc1C)C2=O` (stereo not given), the activity change, negative = inhibition was 4.49% in assay [1]; 4.97% in assay [2]; -13.4% in assay [3]; 10.1% in assay [4]; 4.73% in assay [5].

On to `C[C@@H]1C(=O)O[C@H]2C[C@]34[C@H]5C[C@@H](C(C)(C)C)[C@]36[C@@H](OC(=O)[C@H]6O)O[C@]4(C(=O)O5)[C@]21O`, for which the activity change, negative = inhibition was 3.66% in assay [1]; -4.51% in assay [2]; 1.52% in assay [3]; -14.3% in assay [4]; -0.197% in assay [5].

`CCCN1C(=O)c2c(C(=O)NCCc3ccc(Cl)cc3)ncn2CC1(C)C(=O)NC1CCCC1` (stereo not given): the activity change, negative = inhibition in assay [1] was -4.46%; in assay [2] it was 2.94%; in assay [3], -1.39%; in assay [4] it was -5.17%; in assay [5] it was -2.23%.

Turning to `COc1ccc(CNc2nc3c(S(=O)(=O)c4ccc(C)c(C)c4)nnn3c3ccccc23)cc1`, the activity change, negative = inhibition is -5.96% in assay [1]; 3.21% in assay [2]; -2.73% in assay [3]; 2.93% in assay [4]; -8.32% in assay [5].

Turning to `Cc1cc(CNC(=O)c2cc(C(C)C)nn2C)c2[nH]c(C)c(C)c2c1`, the activity change, negative = inhibition in assay [1] is -8.71%; in assay [2], -8.96%; in assay [3], -2.49%; in assay [4], -9.68%; in assay [5] it was -8.72%.

`COc1ccccc1CN1C(=O)c2cc3ccccc3n2CC1(C)C(=O)NC1CCCC1` (stereo not given): the activity change, negative = inhibition in assay [1] was -0.908%; in assay [2] it was 0.613%; in assay [3], 1.9%; in assay [4], 1.99%; in assay [5] it was 0.12%.

With `COC1C(=O)N(C2CCN(C(=O)c3cc(C)nn3C)CC2)C12CCOCC2` (stereo not given), the activity change, negative = inhibition in assay [1] was -0.893%; in assay [2], -0.833%; in assay [3] it was 0.421%; in assay [4], 4.44%; in assay [5], 5.94%.

Turning to `C#CCNC(=O)CC[C@@H]1CNC(=O)[C@@H]2C[C@H](NC(=O)c3ccco3)CN12`, the activity change, negative = inhibition is -8.81% in assay [1]; -8.41% in assay [2]; -4.42% in assay [3]; -12.5% in assay [4]; -18.6% in assay [5].

For `CCCN(C)C(=O)CC1COCCN1C(=O)Nc1cccc(SC)c1` (stereo not given), the activity change, negative = inhibition in assay [1] is -7.46%; in assay [2] it was -10.2%; in assay [3] it was -4.04%; in assay [4] it was -15.8%; in assay [5], -13.3%.

As to `Cn1nccc1CN1CCC2(C1)C(=O)Nc1ccccc12` (stereo not given), the activity change, negative = inhibition in assay [1] is -13.6%; in assay [2], -3.47%; in assay [3], -0.138%; in assay [4] it was -13.1%; in assay [5], 10.1%.

Regarding `O=C(NCc1ccccc1F)C1CC(c2ccccc2)CN(C(=O)COc2ccccc2)C1` (stereo not given), the activity change, negative = inhibition in assay [1] was -4.39%; in assay [2] it was -1.15%; in assay [3], -0.659%; in assay [4] it was -1.88%; in assay [5] it was -16.2%.

In the case of `Cn1c(=O)n(C)c2cc(S(=O)(=O)NC3CCCCC3)ccc21`, the activity change, negative = inhibition in assay [1] is -1.93%; in assay [2] it was 0%; in assay [3], 12%; in assay [4], 16.5%; in assay [5], 3.61%.

Take `C[S+](=O)([O-])NC1CCCN(Cc2ccc(-c3cncnc3)cc2)C1` (stereo not given): the activity change, negative = inhibition in assay [1] is -0.29%; in assay [2], -0.608%; in assay [3], 1.44%; in assay [4], -5.63%; in assay [5] it was -0.143%.

For the molecule `COC(=O)c1ncn2c1C(=O)N(Cc1ccc(OC)c(OC)c1)C(C)(C(=O)NC1CCCCC1)C2` (stereo not given), the activity change, negative = inhibition in assay [1] is -5%; in assay [2] it was 6.59%; in assay [3], -2.59%; in assay [4], 0.54%; in assay [5], 3.46%.

Regarding `CCOC(=O)Cn1c(=O)oc2cc(S(=O)(=O)NCCc3ccc(Cl)cc3)ccc21`, the activity change, negative = inhibition in assay [1] was -2.4%; in assay [2], 7.09%; in assay [3], 3.02%; in assay [4], 6.72%; in assay [5], -3.87%.

With `CCn1ncnc1C1CC(=O)Nc2cc(OC)c(NS(C)(=O)=O)cc21` (stereo not given), the activity change, negative = inhibition in assay [1] stood at 1.6%; in assay [2], 2.85%; in assay [3] it was 1.27%; in assay [4], 6.37%; in assay [5] it was 4.77%.

With `CN(C(=O)CCc1nc2ccccc2[nH]1)C1CCc2nn(C)c(=O)n2CC1` (stereo not given), the activity change, negative = inhibition in assay [1] was -0.508%; in assay [2] it was -1.47%; in assay [3] it was 0.301%; in assay [4] it was -1.03%; in assay [5], -0.55%.

For `CCCC1c2ccc(C)n2CCN1C(=O)Nc1ccc(Cl)cc1` (stereo not given), the activity change, negative = inhibition in assay [1] is 3.04%; in assay [2] it was 4.15%; in assay [3] it was -1.26%; in assay [4] it was 8.71%; in assay [5] it was 0.282%.
